# Experimental data: the BET-seq Pho4 binding data (Le et al. 2018)
# The other results are listed elsewhere or left out. These are noisy estimates, calculated here from bound and input reads.
# Target: T1, Pho4 (S. cerevisiae) (UniProt P07270)
# T1 sequence: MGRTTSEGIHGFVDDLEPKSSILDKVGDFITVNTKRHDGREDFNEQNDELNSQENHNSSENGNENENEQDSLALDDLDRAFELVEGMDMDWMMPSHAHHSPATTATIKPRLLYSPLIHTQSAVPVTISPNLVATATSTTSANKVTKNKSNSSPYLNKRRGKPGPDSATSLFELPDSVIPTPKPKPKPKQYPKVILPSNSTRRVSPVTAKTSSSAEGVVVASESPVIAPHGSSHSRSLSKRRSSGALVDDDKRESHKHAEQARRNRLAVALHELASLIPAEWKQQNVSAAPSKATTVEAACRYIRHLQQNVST
# Assay: relative binding free energy (BET-seq); higher = weaker binding
# Conditions: reference: library average
row,Sequence,relative binding free energy [kcal/mol]
1,TTAGACACGTGTGGGA,0.19
2,GTTAACACGTGGCGGC,0.19
3,GGCTGCACGTGGGGGG,-0.09
4,GTTAACACGTGGGGAG,0.05
5,ATGGCCACGTGGAGTG,-0.03
6,TAAGCCACGTGTGGGT,-0.16
7,AGTGGCACGTGACGGA,0.05
8,TTAGACACGTGTTATT,-0.01
9,TATCTCACGTGTTAAT,0.28
10,GTAGGCACGTGATTAT,0.09
11,GATTCCACGTGGGTGT,-0.09
12,AGGATCACGTGGGCAT,0.06
13,GGTGTCACGTGGCGCA,0.04
14,AGTTACACGTGACAGT,0.23
15,CATTTCACGTGTGTTA,0.18
16,ATTTGCACGTGGGCGG,-0.09
17,TGTGACACGTGGAAGG,0.06
18,AACGTCACGTGTGGGC,0.26
19,TGTAGCACGTGTTAGC,-0.02
20,GGCAACACGTGAAGGG,0.18
21,GATATCACGTGTGTAG,0.38
22,GGTTCCACGTGTAGGG,0.18
23,TCTTGCACGTGGGGTC,-0.08
24,TATTGCACGTGTGTAA,-0.03
25,AAAATCACGTGAGTTT,0.24
26,GTGGGCACGTGTTTAA,0.1

row,Sequence,relative binding free energy [kcal/mol]
1,CAGATCACGTGTTTTT,0.16
2,GTCAACACGTGTTTGT,0.06
3,AGGGACACGTGGCGGG,-0.14
4,ATTGCCACGTGTGGTT,0.02
5,CGTGTCACGTGCATTG,-0.02
6,AGTATCACGTGTGAAA,0.25
7,TTTTTCACGTGGTTCC,0.26
8,GCTGGCACGTGTTTTA,0.02
9,TTGGACACGTGTGACT,0.11
10,CGGCACACGTGGAGGA,0.12
11,GGTCACACGTGGTGCG,0.06
12,TCAGTCACGTGAGCGG,0.17
13,CGTTTCACGTGGAGCT,0.28
14,GTGAGCACGTGGGCAT,-0.19
15,ATAAGCACGTGTCGTG,-0.07
16,ATCGTCACGTGTTGAA,0.18
17,GCTTTCACGTGTTTAT,0.19
18,TGTGTCACGTGGGATT,0
19,ATTATCACGTGACAGT,0.18
20,AAGTTCACGTGGAGGT,0.19
21,GGGGACACGTGTGTAG,0.18
22,ACGGTCACGTGGTTCT,0.11
23,ATTGTCACGTGCCGTT,-0.11
24,ATATACACGTGTGGCT,0.16
25,TTCATCACGTGGGCTT,0.13
26,TATATCACGTGTGGAG,0.26

row,Sequence,relative binding free energy [kcal/mol]
1,AGGGGCACGTGAGTCG,0.04
2,CGTGACACGTGTGGAG,0
3,TTTTCCACGTGTCGTG,0.08
4,AAGGGCACGTGATTGT,-0.01
5,TATTTCACGTGACGGA,0.43
6,TTTGCCACGTGGAGGT,0.09
7,TATGTCACGTGGGGAG,0
8,TATTTCACGTGATAGC,0.26
9,CTTTTCACGTGATATG,0.16
10,CTGGTCACGTGCTTGG,-0.03
11,TGCATCACGTGGAAGG,0.4
12,ATATGCACGTGGGAGG,-0.1
13,CGGTGCACGTGGACTT,-0.04
14,GTAAACACGTGGGACG,0.05
15,AAGGGCACGTGGGTCG,-0.26
16,TGTGTCACGTGTCATG,0.07
17,GGGGCCACGTGCTGGA,-0.2
18,TGGTGCACGTGGAGTA,-0.08
19,AGGGTCACGTGGTCGA,0.04
20,ATAGTCACGTGACGGG,-0.05
21,TGCTTCACGTGTTAGG,0.14
22,AGAGTCACGTGGGCAT,0.07
23,TTATGCACGTGGTTGC,-0.04
24,CGTAGCACGTGGTGTA,-0.12
25,GGTGGCACGTGCTGGC,-0.09
26,TTGATCACGTGTTGGT,0.15

row,Sequence,relative binding free energy [kcal/mol]
1,CGTTGCACGTGTGATA,0.11
2,AAAAACACGTGGGGGT,0
3,AAGTGCACGTGTGCGG,-0.12
4,TGTGTCACGTGCGGTC,0.04
5,GTGAGCACGTGATTTT,0.18
6,GAGGTCACGTGGGGAC,0.06
7,TTTTGCACGTGGTATA,-0.01
8,TAGATCACGTGCGGGG,-0.07
9,AAGGGCACGTGGTAGG,-0.11
10,TTTTGCACGTGTCCGG,0.15
11,TTTAGCACGTGTTCTA,-0.08
12,TTGATCACGTGGTGTG,-0.01
13,TAAGTCACGTGTATTT,0.14
14,AACGTCACGTGGGGCT,-0.06
15,TGAGTCACGTGAAGGC,0.26
16,AGTCGCACGTGATGTG,-0.02
17,GGGGCCACGTGGGTAC,-0.05
18,GGAGGCACGTGTGGAT,0.1
19,TATCGCACGTGGGTGG,-0.22
20,TGCGGCACGTGTATGG,-0.03
21,TATGTCACGTGGCCGT,-0.04
22,GATTTCACGTGTAATT,0.46
23,GAGAGCACGTGAAAGT,0.37
24,TGTCTCACGTGAGGGG,0.25
25,GATTGCACGTGCATGG,0
26,GGATTCACGTGTTCGG,0.29

row,Sequence,relative binding free energy [kcal/mol]
1,GGTGGCACGTGCTCGG,-0.23
2,AAAATCACGTGGCTTG,0.23
3,TATGTCACGTGTCGGT,0.11
4,GTAAGCACGTGTAGAT,0.16
5,TGGTGCACGTGCCGTA,-0.07
6,GTCGACACGTGGTTTG,0.09
7,TGCGTCACGTGGTTAG,-0.08
8,AACAACACGTGTGTGG,0.12
9,ATTTACACGTGGATAG,-0.11
10,GGGTACACGTGTTGCA,0.11
11,GTACTCACGTGTTGTG,0.05
12,AGCCGCACGTGGAGTG,0.01
13,TTTCACACGTGGTGAT,-0.06
14,TTTCACACGTGACGGG,0.31
15,TAAGTCACGTGTTCGG,0.03
16,GAGGTCACGTGTGTAG,0.09
17,GTTTGCACGTGGGCCA,0
18,GAACTCACGTGGGGTG,0.07
19,TTCCGCACGTGTGTGG,0.02
20,TGTTACACGTGCGGTC,0.16
21,TTAGTCACGTGGGTAG,0.03
22,TAGTTCACGTGATAAG,0.37
23,ATCATCACGTGTGGGT,0.25
24,GTGATCACGTGGAGGG,0.16
25,TGGGGCACGTGGCTAA,-0.09
26,TGAGGCACGTGAGGGT,0.12

row,Sequence,relative binding free energy [kcal/mol]
1,ATATGCACGTGTCTTG,-0.16
2,ATGATCACGTGTTCGG,0.24
3,AAAGTCACGTGATTGT,0.16
4,TAGGACACGTGAGGTG,0.28
5,TGGTACACGTGAGTCT,0.33
6,TTTAACACGTGCATGT,-0.01
7,CGGTACACGTGAGGAG,0.38
8,GAAGTCACGTGTTGGT,0.12
9,GTGTTCACGTGTATCA,0.17
10,TGGCTCACGTGCGGGA,0.22
11,TTGGTCACGTGTGGAG,0.19
12,TAGTACACGTGTGGGT,0.2
13,GGGGGCACGTGTCTTA,-0.12
14,GGTGCCACGTGCGGGT,-0.14
15,AGCGGCACGTGTTAGA,-0.05
16,GCAGTCACGTGTTGGC,0.14
17,AGGGGCACGTGGAGTT,-0.12
18,GGTCACACGTGAGTTG,0.27
19,CTGGACACGTGTAATG,0.08
20,TAGATCACGTGGCGAG,0.14
21,GGTCCCACGTGGCGGT,0
22,CGTGTCACGTGGGACG,-0.06
23,CTTGACACGTGTCGGG,0.15
24,GCTGGCACGTGGGATA,-0.17
25,AGGGTCACGTGAAATT,0.37
26,CGGTTCACGTGGTTAG,0.33

row,Sequence,relative binding free energy [kcal/mol]
1,GTGAGCACGTGGTGGA,-0.04
2,GTCTGCACGTGTTTTT,0.11
3,ATGGCCACGTGTTGAT,-0.15
4,GTTAACACGTGTTGTA,0.07
5,GGGGACACGTGTGCGT,-0.02
6,GTAGGCACGTGGTGCG,-0.18
7,CTAGGCACGTGGTTAA,-0.19
8,GTGGGCACGTGCTAAT,0
9,TGCACCACGTGGTGTT,-0.11
10,ATTGTCACGTGCTGTG,0.06
11,GCGGTCACGTGCTAGG,-0.01
12,CAAGTCACGTGGGGTG,-0.13
13,TAATTCACGTGGGTGA,0.2
14,GCGGGCACGTGTTGGT,0.1
15,TTGGTCACGTGCAGTA,0.1
16,GAATGCACGTGAGTGT,0.14
17,GAGGTCACGTGTTTGC,0.17
18,GGGTACACGTGGGAGT,0.07
19,TAGGCCACGTGATCGG,0.07
20,GCGGTCACGTGTCGGA,0.22
21,TAGTTCACGTGGTCCT,0.25
22,TTGAACACGTGGGTGT,-0.14
23,TAGTACACGTGAGGAA,0.36
24,AAGTTCACGTGTGCGG,0.2
25,AATTGCACGTGTGGTC,0.06
26,TAGTTCACGTGTGTGT,0.38

row,Sequence,relative binding free energy [kcal/mol]
1,ATAAGCACGTGAAGGT,0.03
2,ATGTACACGTGTCATG,-0.07
3,CAATTCACGTGTTTAT,0.19
4,GTTGTCACGTGTCGTT,0.19
5,ACTATCACGTGGGTTG,-0.09
6,GTGGGCACGTGTCGGC,0.11
7,TACGTCACGTGGGTTG,-0.23
8,GGAGGCACGTGATATG,-0.01
9,TATCTCACGTGGGTAT,0.11
10,GCGGGCACGTGGTGCT,-0.08
11,TGATTCACGTGCTAGT,0.11
12,AAAAACACGTGGTGGG,0.03
13,TTGGGCACGTGATTGT,0.03
14,CTATTCACGTGTTTAT,0.28
15,TGTTTCACGTGAATTT,0.31
16,GCTGTCACGTGGTGTG,0.09
17,TGTCACACGTGTTGAA,0.09
18,AAAGGCACGTGAGGGA,0.16
19,GGTGTCACGTGGTTTA,0.16
20,TTTGGCACGTGAGACA,0.15
21,AGTTCCACGTGTGTGG,-0.01
22,TTTAGCACGTGTTGGG,0.13
23,TGCTCCACGTGGGAGT,-0.01
24,TAAGACACGTGCAGGG,0.03
25,TTGTGCACGTGGTTGG,-0.05
26,TTAGGCACGTGAGTCT,-0.11

row,Sequence,relative binding free energy [kcal/mol]
1,TGGCTCACGTGGCGTG,0.08
2,CTTGTCACGTGTTGGC,0.09
3,GGAGTCACGTGTGTAG,0.14
4,TATTGCACGTGGATTA,0.01
5,TTTGGCACGTGTAAGA,0.13
6,GTTATCACGTGAGGTT,0.46
7,GTAGTCACGTGGAAGT,0.05
8,AGGGGCACGTGTAAAG,0.04
9,AGACGCACGTGAAGGG,0.03
10,TTTTTCACGTGCCGAG,0.4
11,GCGGGCACGTGTCGGA,-0.02
12,AGGTACACGTGATGGA,0.02
13,ATTCTCACGTGATGTA,0.37
14,GGTCACACGTGTTAGA,0.21
15,CGTGGCACGTGCGGAT,-0.21
16,AGTAGCACGTGCATGT,-0.02
17,TCTTGCACGTGTGATT,0.2
18,ACGTGCACGTGTTGTG,-0.06
19,AATAGCACGTGGGATT,-0.18
20,ACTTTCACGTGAATGT,0.26
21,AAAGACACGTGTGCGG,0.1
22,TGAGACACGTGGGTAG,-0.14
